Test results taken from paper PMC9911399, “Two distinct binding modes provide the RNA-binding protein RbFox with extraordinary sequence specificity”.
Changes are numbered by the printed parent chain; changes in the protein carry UniProt numbers. This is one part of the list.

T1: RBFOX1 RRM (Homo sapiens, UniProt Q9NWB1 109-208)
T1 sequence: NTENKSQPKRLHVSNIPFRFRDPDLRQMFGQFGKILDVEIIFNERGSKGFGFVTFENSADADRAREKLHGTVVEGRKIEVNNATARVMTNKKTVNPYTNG

B1: UAUAAGC (DNA:RNA)
RNA: GGGAGACCGGAAUUCAGAUUGUCCUAUAAGCUUAAAUCCCGUCGUAGCCACCA
DNA 1: CAATCTGAATTCCGGTCTCCC
DNA 2: TGGTGGCTACGACGGGATT
B2: CGCAGAU (DNA:RNA)
RNA: B1 RNA with U25C, A26G, U27C, A29G, G30A, C31U
DNA 1: CAATCTGAATTCCGGTCTCCC
DNA 2: TGGTGGCTACGACGGGATT
B3: CCGUUCA (DNA:RNA)
RNA: GGGAGACCGGAAUUCAGAUUGUCCCCGUUCAUUAAAUCCCGUCGUAGCCACCA
DNA 1: CAATCTGAATTCCGGTCTCCC
DNA 2: TGGTGGCTACGACGGGATT
B4: CAGAGCA (DNA:RNA)
RNA: B3 RNA with C26A, U28A, U29G
DNA 1: CAATCTGAATTCCGGTCTCCC
DNA 2: TGGTGGCTACGACGGGATT
B5: CUGAACU (DNA:RNA)
RNA: B3 RNA with C26U, U28A, U29A, A31U
DNA 1: CAATCTGAATTCCGGTCTCCC
DNA 2: TGGTGGCTACGACGGGATT
B6: AUAUGCC (DNA:RNA)
RNA: B3 RNA with C25A, C26U, G27A, U29G, A31C
DNA 1: CAATCTGAATTCCGGTCTCCC
DNA 2: TGGTGGCTACGACGGGATT
B7: UAGGCAG (DNA:RNA)
RNA: B1 RNA with U27G, A28G, A29C, G30A, C31G
DNA 1: CAATCTGAATTCCGGTCTCCC
DNA 2: TGGTGGCTACGACGGGATT
B8: UACUACA (DNA:RNA)
RNA: B3 RNA with C25U, C26A, G27C, U29A
DNA 1: CAATCTGAATTCCGGTCTCCC
DNA 2: TGGTGGCTACGACGGGATT
B9: CCUUACG (DNA:RNA)
RNA: B3 RNA with G27U, U29A, A31G
DNA 1: CAATCTGAATTCCGGTCTCCC
DNA 2: TGGTGGCTACGACGGGATT

Target: T1, RBFOX1 RRM
Assay: EMSA; HiTS-Eq, 1 nM pool, 10 min; buffer printed only for the single-RNA assays: 10 mM Tris pH 7.5, 150 mM NaCl, 3.4 mM EDTA, 0.001% NP-40, 30 C
Details: tags: His6 N-terminal (pET28a); label: 5' 32P
Method in brief: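 Relative association constants, normalised to the cognate motif, were derived by comparing read counts of each RNA species with those of the control reaction. The RNA sequenced was the free fraction, separated by 8% native PAGE after a 10 min equilibration in 50 µL of 1 nM 5′-radiolabelled RNA (7 randomized nucleotides) with increasing concentrations of purified wild-type or mutant RbFox RRM.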

Binder | binding signal
B1 | 0.00937 KA relative to UGCAUGU
B2 | 0.00891 KA relative to UGCAUGU
B3 | 0.00724 KA relative to UGCAUGU
B4 | 0.00837 KA relative to UGCAUGU
B5 | 0.00869 KA relative to UGCAUGU
B6 | 0.00682 KA relative to UGCAUGU
B7 | 0.0165 KA relative to UGCAUGU
B8 | 0.00169 KA relative to UGCAUGU
B9 | 0.00237 KA relative to UGCAUGU
